Source: patent US7592419B2, “Macrocyclic inhibitors of hepatitis C virus NS3-serine protease” (Schering Corporation, priority 2003, dated 2009)

Target: Recombinant heterodimeric HCV NS3/NS4A protease (strain 1a) (Hepatitis C virus genotype 1a, UniProt P27958)
Assay: Spectrophotometric assay for HCV protease inhibitory activity (chromogenic ester substrates)
Format: biochemical, hepatitis C virus (strain 1a)
Settings: Table 1, 30° C., pH 6.5, read-out: Binding Activity (Ki rating)
Protocol: Assay for HCV Protease Inhibitory Activity:
Spectrophotometric Assay: Spectrophotometric assays for the HCV serine protease was performed on the inventive compounds by following the procedure described by R. Zhang et al, Analytical Biochemistry, 270 (1999) 268-275, the disclosure of which is incorporated herein by reference. The assay based on the proteolysis of chromogenic ester substrates is suitable for the continuous monitoring of HCV NS3 protease activity. The substrates were derived from the P side of the NS5A-NS5B junction sequence (Ac-DTEDVVX(Nva), where X=A or P) whose C-terminal carboxyl groups were esterified with one of four different chromophoric alcohols (3- or 4-nitrophenol, 7-hydroxy-4-methyl-coumarin, or 4-phenylazophenol). Presented below are the synthesis, characterization and application of these novel spectrophotometric ester substrates to high throughput screening and detailed kinetic evaluation of HCV NS3 protease inhibitors. Materials and Methods:
Protein concentrations were determined by the Biorad dye method using recombinant HCV protease standards previously quantified by amino acid analysis. Prior to assay initiation, the enzyme storage buffer (50 mM sodium phosphate pH 8.0, 300 mM NaCl, 10% glycerol, 0.05% lauryl maltoside and 10 mM DTT) was exchanged for the assay buffer (25 mM MOPS pH 6.5, 300 mM NaCl, 10% glycerol, 0.05% lauryl maltoside, 5 μM EDTA and 5 μM DTT) utilizing a Biorad Bio-Spin P-6 prepacked column.
Protease Assay: HCV protease assays were performed at 30° C. using a 200 μl reaction mix in a 96-well microtiter plate. Assay buffer conditions (25 mM MOPS pH 6.5, 300 mM NaCl, 10% glycerol, 0.05% lauryl maltoside, 5 μM EDTA and 5 μM DTT) were optimized for the NS3/NS4A heterodimer (D. L. Sali et al, ibid.)). Typically, 150 μl mixtures of buffer, substrate and inhibitor were placed in wells (final concentration of DMSO≦4% v/v) and allowed to preincubate at 30° C. for approximately 3 minutes. Fifty μls of prewarmed protease (12 nM, 30° C.) in assay buffer, was then used to initiate the reaction (final volume 200 μl). The plates were monitored over the length of the assay (60 minutes) for change in absorbance at the appropriate wavelength (340 nm for 3-Np and HMC, 370 nm for PAP, and 400 nm for 4-Np) using a Spectromax Plus microtiter plate reader equipped with a monochrometer (acceptable results can be obtained with plate readers that utilize cutoff filters). Proteolytic cleavage of the ester linkage between the Nva and the chromophore was monitored at the appropriate wavelength against a no enzyme blank as a control for non-enzymatic hydrolysis. The evaluation of substrate kinetic parameters was performed over a 30-fold substrate concentration range (−6-200 μM). Initial velocities were determined using linear regression and kinetic constants were obtained by fitting the data to the Michaelis-Menten equation using non-linear regression analysis (Mac Curve Fit 1.1, K. Raner). Turnover numbers (kcat) were calculated assuming the enzyme was fully active.
Evaluation of Inhibitors and Inactivators: The inhibition constants (Ki*) for the competitive inhibitors Ac-D-(D-Gla)-L-1-(Cha)-C-OH (27), Ac-DTEDVVA(Nva)-OH and Ac-DTEDWP(Nva)-OH were determined experimentally at fixed concentrations of enzyme and substrate by plotting vo/vi vs. inhibitor concentration ([I]o) according to the rearranged Michaelis-Menten equation for competitive inhibition kinetics: vo/vi=1+[I]o/(Ki(1+[S]o/Km)), where vo is the uninhibited initial velocity, vi is the initial velocity in the presence of inhibitor at any given inhibitor concentration ([I]o) and [S]o is the substrate concentration used. The resulting data were fitted using linear regression and the resulting slope, 1/(Ki(1+[S]o/Km), was used to calculate the Ki* value.

Row | Structure (SMILES) | Ki
1 | CC(C)(C)NC(=O)N[C@H]1CCCCCCCCCC[C@@H](C(=O)C(N)=O)NC(=O)[C@@H]2[C@H]3CC(C)(C)O[C@H]3CN2C1=O [Example 12] | 100 to 1000 nM
2 | CN(C)C(=O)[C@@H](NC(=O)CNC(=O)C(=O)[C@@H]1CCCCC=CCCCC[C@H](NC(=O)OC(C)(C)C)C(=O)N2C[C@H]3[C@@H]([C@H]2C(=O)N1)C3(C)C)c1ccccc1 [Example 1] | < 100 nM
3 | CC(C)(C)NC(=O)N[C@H]1CCCCCCCCCC[C@@H](C(=O)C(N)=O)NC(=O)[C@@H]2[C@@H]3[C@H](CN2C1=O)C3(C)C [Example 5] | < 100 nM
4 | CC(C)(C)NC(=O)N[C@@H]1C(=O)N2C[C@H]3[C@@H]([C@H]2C(=O)N[C@H](C(=O)C(N)=O)CCCCCCCCCC1(C)C)C3(C)C [Example 17] | < 100 nM
5 | CC1(NC(=O)N[C@H]2CCCCCCCCCC[C@@H](C(=O)C(N)=O)NC(=O)[C@@H]3[C@@H]4[C@H](CN3C2=O)C4(C)C)CCCCC1 [Example 6] | < 100 nM
6 | CC(C)(C)OC(=O)[C@@H](NC(=O)N[C@H]1CCCCCCCCCC[C@@H](C(=O)C(N)=O)NC(=O)[C@@H]2[C@@H]3[C@H](CN2C1=O)C3(C)C)C(C)(C)C [Example 7] | < 100 nM
7 | CC1(C)[C@@H]2[C@H]3C(=O)N[C@H](C(=O)C(N)=O)CCCCCCCCC[C@H](NC(=O)N[C@H](C(=O)C4CC4)C4CCCCC4)C(=O)N3C[C@@H]21 [Example 21] | < 100 nM
8 | CN(C)C(=O)[C@@H](NC(=O)CNC(=O)C(=O)[C@@H]1CCCCCCCCCC[C@H](NC(=O)OC(C)(C)C)C(=O)N2C[C@H]3[C@@H]([C@H]2C(=O)N1)C3(C)C)c1ccccc1 [Example 2] | < 100 nM
9 | C=CCNC(=O)C(=O)[C@@H]1CCCCCCCCC[C@H](NC(=O)N[C@H](C(=O)C2CC2)C2CCCCC2)C(=O)N2C[C@H]3[C@@H]([C@H]2C(=O)N1)C3(C)C [Example 30] | < 100 nM
10 | CC(C)(C)OC(=O)N[C@H]1CCCCCCCCCC[C@@H](C(=O)C(N)=O)NC(=O)[C@@H]2[C@@H]3[C@H](CN2C1=O)C3(C)C [Example 4] | < 100 nM
11 | CN(C)C(=O)[C@@H](NC(=O)CNC(=O)C(=O)[C@@H]1CCCCCCCCCC[C@H](NC(=O)OC(C)(C)C)C(=O)N2C[C@@H]3OC(C)(C)C[C@@H]3[C@H]2C(=O)N1)c1ccccc1 [Example 10] | < 100 nM
12 | C=CCNC(=O)C(=O)[C@@H]1CCCCCCCCC[C@H](NC(=O)NC2(CS(=O)(=O)C(C)(C)C)CCCCC2)C(=O)N2C[C@H]3[C@@H]([C@H]2C(=O)N1)C3(C)C [Example 27] | < 100 nM

Same assay, conditions: Table 2, 30° C., pH 6.5, read-out: Activity Ki* (nM) (rating)

Row | Structure (SMILES) | Ki
13 | C=CCNC(=O)C(=O)[C@@H]1CCCCCCCCC[C@H](NC(=O)N[C@H](CN2Cc3sccc3S2(=O)=O)C(C)(C)C)C(=O)N2C[C@H]3[C@@H]([C@H]2C(=O)N1)C3(C)C [Example 48] | < 100 nM
14 | CC1(C)CC(=O)N(C[C@@H](NC(=O)N[C@H]2CCCCCCCCC[C@@H](C(=O)C(=O)NC3CC3)NC(=O)[C@@H]3[C@@H]4[C@H](CN3C2=O)C4(C)C)C(C)(C)C)C(=O)C1 [Example 67] | < 100 nM
15 | C[C@@H]1OCCCCCCC[C@@H](C(=O)C(=O)NC2CC2)NC(=O)[C@@H]2[C@@H]3[C@H](CN2C(=O)[C@H]1NC(=O)N[C@H](CN1C(=O)CC(C)(C)CC1=O)C(C)(C)C)C3(C)C [Example 75] | < 100 nM
16 | C=CCNC(=O)C(=O)[C@@H]1CCCCCCCOC[C@H](NC(=O)N[C@H](C(=O)C2CC2)C2CCCCC2)C(=O)N2C[C@H]3[C@@H]([C@H]2C(=O)N1)C3(C)C [Example 54] | 100 to 1000 nM
17 | CCS(=O)(=O)N(C)C[C@@H](NC(=O)N[C@@H]1C(=O)N2C[C@H]3[C@@H]([C@H]2C(=O)N[C@H](C(=O)C(=O)NC2CC2)CCCCCCCO[C@H]1C)C3(C)C)C(C)(C)C [Example 76] | < 100 nM
18 | C=CCNC(=O)C(=O)[C@@H]1CCCCNC(=O)OCCC[C@H](NC(=O)NC2(CS(=O)(=O)C(C)(C)C)CCCCC2)C(=O)N2C[C@H]3[C@@H]([C@H]2C(=O)N1)C3(C)C [Example 71] | < 100 nM
19 | C=CCNC(=O)C(=O)[C@@H]1CCCCCCCOC[C@H](NC(=O)OC(C)(C)C)C(=O)N2C[C@H]3[C@@H]([C@H]2C(=O)N1)C3(C)C [Example 52] | 100 to 1000 nM
20 | C=CCNC(=O)C(=O)[C@@H]1CCCCCCCCC[C@H](NC(=O)NC2(Cc3ccccn3)CCCCC2)C(=O)N2C[C@H]3[C@@H]([C@H]2C(=O)N1)C3(C)C [Example 49] | < 100 nM
21 | C=CCNC(=O)C(=O)[C@@H]1CCCCCCCCC[C@H](NC(=O)N[C@H](CN2C(=O)c3ccccc3C2=O)C(C)(C)C)C(=O)N2C[C@H]3[C@@H]([C@H]2C(=O)N1)C3(C)C [Example 44] | < 100 nM
22 | C[C@@H]1OCCCCCCC[C@@H](C(=O)C(=O)NC2CC2)NC(=O)[C@@H]2[C@@H]3[C@H](CN2C(=O)[C@H]1NC(=O)NC1(CS(=O)(=O)C(C)(C)C)CCCCC1)C3(C)C [Example 77] | < 100 nM
23 | CCNC(=O)C(=O)[C@@H]1CCCCCCCCC[C@H](NC(=O)N[C@H](CN2C(=O)CC(C)(C)CC2=O)C(C)(C)C)C(=O)N2C[C@H]3[C@@H]([C@H]2C(=O)N1)C3(C)C [Example 68] | < 100 nM
24 | C=CCNC(=O)C(=O)[C@@H]1CCCCCCCCC[C@H](NC(=O)N[C@H](CN2CCCCC2=O)C(C)(C)C)C(=O)N2C[C@H]3[C@@H]([C@H]2C(=O)N1)C3(C)C [Example 46] | < 100 nM
25 | CC1(C)[C@@H]2[C@H]3C(=O)N[C@H](C(=O)C(=O)NC4CC4)CCCCCCCCC[C@H](NC(=O)NC4(CS(=O)(=O)C(C)(C)C)CCCCC4)C(=O)N3C[C@@H]21 [Example 39] | < 100 nM
26 | C=CCNC(=O)C(=O)[C@@H]1CCCCCCCCC[C@H](NC(=O)N[C@H](CN(C)S(=O)(=O)c2ccccn2)C(C)(C)C)C(=O)N2C[C@H]3[C@@H]([C@H]2C(=O)N1)C3(C)C [Example 45] | < 100 nM
27 | CN(C[C@@H](NC(=O)N[C@H]1CCCCCCCCC[C@@H](C(=O)C(=O)NC2CC2)NC(=O)[C@@H]2[C@@H]3[C@H](CN2C1=O)C3(C)C)C(C)(C)C)S(=O)(=O)c1cccs1 [Example 36] | < 100 nM
28 | C=CCNC(=O)C(=O)[C@@H]1CCCCCCCCC[C@H](NC(=O)[C@@H](NC(=O)c2cnccn2)C2CCCCC2)C(=O)N2C[C@H]3[C@@H]([C@H]2C(=O)N1)C3(C)C [Example 50] | < 100 nM

Same assay, conditions: Table 2A, 30° C., pH 6.5, read-out: Binding Activity (Ki rating)

Row | Structure (SMILES) | Ki
29 | CN(C)C(=O)[C@@H](NC(=O)CNC(=O)C(=O)[C@@H]1CCCC/C=C/CCCC(C)(C)[C@H](NC(=O)OCc2ccccc2)C(=O)N2C[C@H]3[C@@H]([C@H]2C(=O)N1)C3(C)C)c1ccccc1 [Example 90] | 100 to 1000 nM
30 | CC(C)COC(=O)N[C@H]1CCCCCC2(CC2)CC(C(=O)C(=O)NCC(=O)N[C@H](C(=O)O)c2ccccc2)NC(=O)[C@@H]2CCCN2C1=O (stereo partly shown) [Example 89] | ≥ 1000 nM
31 | CC(C)COC(=O)N[C@H]1CC/C=C/CC2(CC2)CC(C(=O)C(=O)NCC(=O)N[C@H](C(=O)O)c2ccccc2)NC(=O)[C@@H]2CCCN2C1=O (stereo partly shown) [Example 82] | ≥ 1000 nM
32 | CC(C)COC(=O)N[C@H]1CCC(O)C(O)CCCC(C(=O)C(=O)NCC(=O)N[C@@H](C)C(=O)OC(C)(C)C)NC(=O)[C@@H]2CCCN2C1=O (stereo partly shown) [Example 88] | ≥ 1000 nM
33 | CC(C)COC(=O)N[C@H]1CC/C=C/CC2(CC2)CC(C(=O)C(=O)NCC(=O)N[C@H](C(=O)OC(C)(C)C)c2ccccc2)NC(=O)[C@@H]2CCCN2C1=O (stereo partly shown) [Example 83] | ≥ 1000 nM
34 | CN(C)C(=O)[C@@H](NC(=O)CNC(=O)C(=O)[C@@H]1CCCCCCCCCC[C@H](N)C(=O)N2C[C@@H]3OC(C)(C)C[C@@H]3[C@H]2C(=O)N1)c1ccccc1 [Example 78] | ≥ 1000 nM

Same assay, conditions: Table 3, 30° C., pH 6.5, read-out: Activity Ki*

Row | Structure (SMILES) | Ki
35 | CC1(C)[C@@H]2[C@H]3C(=O)N[C@H](C(=O)C(N)=O)CCCCCCCCC[C@H](NC(=O)N[C@H](C(=O)C4CC4)C4CCCCC4)C(=O)N3C[C@@H]21 [Example 21] | 11 nM
36 | C=CCNC(=O)C(=O)[C@@H]1CCCCCCCCC[C@H](NC(=O)N[C@H](C(=O)C2CC2)C2CCCCC2)C(=O)N2C[C@H]3[C@@H]([C@H]2C(=O)N1)C3(C)C [Example 30] | 5 nM
37 | C=CCNC(=O)C(=O)[C@@H]1CCCCCCCCC[C@H](NC(=O)NC2(CS(=O)(=O)C(C)(C)C)CCCCC2)C(=O)N2C[C@H]3[C@@H]([C@H]2C(=O)N1)C3(C)C [Example 27] | 5 nM
